Consider eleven molecules from PMC4466884.

Sequences of proteins named here, by UniProt entry; tags and fusion partners are left off. Residues count along the entry.
UniProt P02340, residues 72-390: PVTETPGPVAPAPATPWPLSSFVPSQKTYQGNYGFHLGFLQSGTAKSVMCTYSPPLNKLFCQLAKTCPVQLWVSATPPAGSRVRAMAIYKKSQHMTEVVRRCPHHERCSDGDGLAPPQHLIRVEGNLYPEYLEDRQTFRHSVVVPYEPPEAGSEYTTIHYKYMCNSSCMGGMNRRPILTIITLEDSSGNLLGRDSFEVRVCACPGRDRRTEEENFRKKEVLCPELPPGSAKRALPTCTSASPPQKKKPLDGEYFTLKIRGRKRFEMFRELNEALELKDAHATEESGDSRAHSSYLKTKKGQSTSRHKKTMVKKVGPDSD

Results are given in words; binding and its absence hold for the method and conditions named. For some of these results: In cells and extracts the contact can be indirect. Some results given as binding are weak or reduced against the parent protein; the word gives no strength. Where a sequence is shown, tags or fusion partners need not be part of it.

Experiment [1] addresses T1, Swm2p (synthetic with Mud2), yeast two-hybrid fusion (S. cerevisiae) (UniProt P40342).
T1 sequence: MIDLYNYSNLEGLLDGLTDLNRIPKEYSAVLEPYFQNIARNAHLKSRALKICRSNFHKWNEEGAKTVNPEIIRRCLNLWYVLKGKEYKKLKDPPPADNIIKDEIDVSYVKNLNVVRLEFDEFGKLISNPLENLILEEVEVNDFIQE
Nature of the experiment: two-hybrid; GAL4-BD baits (pGBKT7) and GAL4-AD preys (pGADT7) co-transformed into reporter strain PJ69-4A; 10-fold serial dilutions spotted on SDC-Trp-Leu and SDC-Trp-Leu-His (HIS3 reporter), 30 °C.

The target of experiment [2] is yeast Tgs1p lacking the first 40 amino acids (Tgs1Δaa1-40), yeast two-hybrid fusion (S. cerevisiae) (UniProt Q12052). Described as above.
The target of experiment [3] is T2, yeast Tgs1p, full-length (aa1-315), yeast two-hybrid fusion (S. cerevisiae) (UniProt Q12052).
T2 sequence: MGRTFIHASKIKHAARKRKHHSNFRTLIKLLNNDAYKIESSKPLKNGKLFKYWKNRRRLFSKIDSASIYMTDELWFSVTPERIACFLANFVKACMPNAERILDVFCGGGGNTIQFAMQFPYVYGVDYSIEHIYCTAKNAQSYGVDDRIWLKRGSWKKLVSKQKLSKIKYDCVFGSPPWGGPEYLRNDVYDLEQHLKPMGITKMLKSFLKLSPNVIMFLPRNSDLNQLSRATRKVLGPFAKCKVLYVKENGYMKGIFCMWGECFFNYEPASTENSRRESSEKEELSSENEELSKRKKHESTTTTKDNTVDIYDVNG
Described as above.

The target of experiment [4] is murine p53 aa 72-390, GAL4-BD fusion (pVA3-1) (murine) (UniProt P02340). Described as above.
Experiment [5] concerns the target yeast Tgs1p co-expressed in E. coli (6His-GST-yTgs1 and 6His-yTgs1p) (S. cerevisiae) (UniProt Q12052). Briefly: pull-down; GST-Tgs1p or GST (pRSFDuet-1) co-expressed with Tgs1p (pETDuet-1) in E. coli BL21 (DE3); cleared lysate in 150 mM NaCl, 50 mM Tris-HCl pH 7.4 on Glutathione Sepharose; Coomassie gel, proteins determined by mass spectrometry.
Experiment [6] has as its target yeast Tgs1p lacking the first 10 amino acids (Tgs1Δaa1-10), yeast two-hybrid fusion (S. cerevisiae) (UniProt Q12052). Nature of the experiment: two-hybrid; GAL4-BD baits (pGBKT7) and GAL4-AD preys (pGADT7) co-transformed into reporter strain PJ69-4A; 10-fold serial dilutions spotted on SDC-Trp-Leu and SDC-Trp-Leu-His (HIS3 reporter), 30 °C.

B1: Swm2p (synthetic with Mud2), yeast two-hybrid fusion (protein, UniProt P40342 1-146)
chain: MIDLYNYSNLEGLLDGLTDLNRIPKEYSAVLEPYFQNIARNAHLKSRALKICRSNFHKWNEEGAKTVNPEIIRRCLNLWYVLKGKEYKKLKDPPPADNIIKDEIDVSYVKNLNVVRLEFDEFGKLISNPLENLILEEVEVNDFIQE
B1: the binding entry in experiment [1] is “no binding”.

B2: yeast Tgs1p lacking the first 40 amino acids (Tgs1Δaa1-40), yeast two-hybrid fusion (domain or fragment, UniProt Q12052 41-315)
chain: SKPLKNGKLFKYWKNRRRLFSKIDSASIYMTDELWFSVTPERIACFLANFVKACMPNAERILDVFCGGGGNTIQFAMQFPYVYGVDYSIEHIYCTAKNAQSYGVDDRIWLKRGSWKKLVSKQKLSKIKYDCVFGSPPWGGPEYLRNDVYDLEQHLKPMGITKMLKSFLKLSPNVIMFLPRNSDLNQLSRATRKVLGPFAKCKVLYVKENGYMKGIFCMWGECFFNYEPASTENSRRESSEKEELSSENEELSKRKKHESTTTTKDNTVDIYDVNG
For B2, the binding entry in experiment [1] is on record as “binds”; in experiment [2] it was “no binding”.
Take MGRTFIHASKIKHAARKRKHHSNFRTLIKLLNNDAYKIESSKPLKNGKL (domain or fragment, UniProt Q12052 1-49) [yeast Tgs1p fragment aa1-49, GAL4-AD fusion]: the binding result in experiment [3] was “no binding”.

B3: yeast Tgs1p C-terminus fragment aa200-315, GAL4-AD fusion (domain or fragment, UniProt Q12052 200-315)
chain: ITKMLKSFLKLSPNVIMFLPRNSDLNQLSRATRKVLGPFAKCKVLYVKENGYMKGIFCMWGECFFNYEPASTENSRRESSEKEELSSENEELSKRKKHESTTTTKDNTVDIYDVNG
As for B3, the binding entry in experiment [3] is recorded as “no binding”.

B4: yeast Tgs1p fragment aa263-315, GAL4-AD fusion (domain or fragment, UniProt Q12052 263-315)
chain: FFNYEPASTENSRRESSEKEELSSENEELSKRKKHESTTTTKDNTVDIYDVNG
As for B4, the binding result in experiment [3] is given as “no binding”.

B5: yeast Tgs1p MTase domain (aa50-262), GAL4-AD fusion (domain or fragment, UniProt Q12052 50-262)
chain: FKYWKNRRRLFSKIDSASIYMTDELWFSVTPERIACFLANFVKACMPNAERILDVFCGGGGNTIQFAMQFPYVYGVDYSIEHIYCTAKNAQSYGVDDRIWLKRGSWKKLVSKQKLSKIKYDCVFGSPPWGGPEYLRNDVYDLEQHLKPMGITKMLKSFLKLSPNVIMFLPRNSDLNQLSRATRKVLGPFAKCKVLYVKENGYMKGIFCMWGEC
In the case of B5, the binding entry in experiment [3] was “no binding”.

B6: yeast Tgs1p fragment aa1-100, GAL4-AD fusion (domain or fragment, UniProt Q12052 1-100)
chain: MGRTFIHASKIKHAARKRKHHSNFRTLIKLLNNDAYKIESSKPLKNGKLFKYWKNRRRLFSKIDSASIYMTDELWFSVTPERIACFLANFVKACMPNAER
As for B6, the binding result in experiment [3] is reported as “binds”.

B7: human Tgs1p truncation aa631-853, yeast two-hybrid fusion (domain or fragment, UniProt Q96RS0 631-853)
chain: VNGLPPEIAAVPELAKYWAQRYRLFSRFDDGIKLDREGWFSVTPEKIAEHIAGRVSQSFKCDVVVDAFCGVGGNTIQFALTGMRVIAIDIDPVKIALARNNAEVYGIADKIEFICGDFLLLASFLKADVVFLSPPWGGPDYATAETFDIRTMMSPDGFEIFRLSKKITNNIVYFLPRNADIDQVASLAGPGGQVEIEQNFLNNKLKTITAYFGDLIRRPASET
On to B7, for which the binding result in experiment [1] was “no binding”.

B8: yeast Tgs1p, full-length (aa1-315), yeast two-hybrid fusion (protein, UniProt Q12052 1-315)
chain: MGRTFIHASKIKHAARKRKHHSNFRTLIKLLNNDAYKIESSKPLKNGKLFKYWKNRRRLFSKIDSASIYMTDELWFSVTPERIACFLANFVKACMPNAERILDVFCGGGGNTIQFAMQFPYVYGVDYSIEHIYCTAKNAQSYGVDDRIWLKRGSWKKLVSKQKLSKIKYDCVFGSPPWGGPEYLRNDVYDLEQHLKPMGITKMLKSFLKLSPNVIMFLPRNSDLNQLSRATRKVLGPFAKCKVLYVKENGYMKGIFCMWGECFFNYEPASTENSRRESSEKEELSSENEELSKRKKHESTTTTKDNTVDIYDVNG
On to B8, for which the binding entry in experiment [1] is given as “binds”; in experiment [4] it was “no binding”; in experiment [3], “binds”.

B9: yeast Tgs1p co-expressed in E. coli (6His-GST-yTgs1 and 6His-yTgs1p) (protein, UniProt Q12052 1-315)
chain: MGRTFIHASKIKHAARKRKHHSNFRTLIKLLNNDAYKIESSKPLKNGKLFKYWKNRRRLFSKIDSASIYMTDELWFSVTPERIACFLANFVKACMPNAERILDVFCGGGGNTIQFAMQFPYVYGVDYSIEHIYCTAKNAQSYGVDDRIWLKRGSWKKLVSKQKLSKIKYDCVFGSPPWGGPEYLRNDVYDLEQHLKPMGITKMLKSFLKLSPNVIMFLPRNSDLNQLSRATRKVLGPFAKCKVLYVKENGYMKGIFCMWGECFFNYEPASTENSRRESSEKEELSSENEELSKRKKHESTTTTKDNTVDIYDVNG
On to B9, for which, in experiment [5], the binding result was “binds”.

B10: yeast Tgs1p lacking the first 10 amino acids (Tgs1Δaa1-10), yeast two-hybrid fusion (domain or fragment, UniProt Q12052 11-315)
chain: IKHAARKRKHHSNFRTLIKLLNNDAYKIESSKPLKNGKLFKYWKNRRRLFSKIDSASIYMTDELWFSVTPERIACFLANFVKACMPNAERILDVFCGGGGNTIQFAMQFPYVYGVDYSIEHIYCTAKNAQSYGVDDRIWLKRGSWKKLVSKQKLSKIKYDCVFGSPPWGGPEYLRNDVYDLEQHLKPMGITKMLKSFLKLSPNVIMFLPRNSDLNQLSRATRKVLGPFAKCKVLYVKENGYMKGIFCMWGECFFNYEPASTENSRRESSEKEELSSENEELSKRKKHESTTTTKDNTVDIYDVNG
For B10, the binding result in experiment [1] is “binds”; in experiment [6], “no binding”; in experiment [3], “binds weakly”.
